Experimental findings from ChEMBL document CHEMBL4888484, “Replenishing the malaria drug discovery pipeline: Screening and hit evaluation of the MMV Hit Generation Library 1 (HGL1) against asexual blood stage Plasmodium falciparum ,using a nano luciferase reporter read-out” (2022) are described below.

In all, about 150,000 compounds went through this assay and about 540 (0.36%) showed an effect of 50% or more. This is one part of the list.

For the experiment, the system named is Plasmodium falciparum. The experiment in a line: Primary screen in NF54 nanoGlo assay, in single point, at 2uM, 72h; a lower Z score goes with more inhibition. It counts as functional, Erythrocyte. As to conditions: timepoint 72 hour.
Take `O=C(C1CCN(C2CCN(CCCc3ccccc3)CC2)CC1)N1CCCOCC1`: the “% Inhibition” value was -3% and the Z score is listed as 0.41.
For `C[C@H](OC(=O)c1ccc(N2C(=O)c3ccccc3C2=O)cc1)C(=O)N1CCc2ccccc21` the same measures were -4% and 0.74.
For `O=C(COc1ccc(Cl)cc1)NC1CCN(Cc2ccccc2)CC1` the same measures were -10% and 0.93.
The corresponding values for `FC(F)CN1CCCN(Cc2nc3ccccc3[nH]2)CC1` are 7% and -1.23.
For the molecule `CC1CCCC(OC(C)C(=O)N2CC[S+]([O-])C(C)C2C)C1` (stereo not given), the “% Inhibition” value is -13% and the Z score is listed as 1.11.
Turning to `c1ccc(-c2nnc(N3C[C@H]4CCN[C@H]4C3)s2)cc1`, the “% Inhibition” value is recorded as -4% and the Z score turned out to be 0.81.
For `COc1ccc(CNC(=O)c2cccn2-c2cccnc2C)cc1OC` the same measures were -5% and 0.55.
Take `CCC(=O)NC[C@@H](O)Cc1ccc(F)cc1F`: the “% Inhibition” value is on record as -5% and the Z score was found to be 0.5.
`COc1ccc(C)cc1-n1c([C@H]2CC(=O)N(Cc3ccccc3)C2)n[nH]c1=O`: the “% Inhibition” value was -7% and the Z score was found to be 1.08.
Regarding `CCc1ccnc(C(=O)N[C@H]2CCC[C@H]2Cn2ccnn2)c1`, the “% Inhibition” value was -6% and the Z score came to 0.66.
For `COc1ccc(F)cc1CN1CCN(S(=O)(=O)N2CCCCCC2)CC1`, the “% Inhibition” value was -8% and the Z score is on record as 0.95.
On to `CNC(=O)C1CCN(CC(=O)N2CCCCCCC2)CC1`, for which the “% Inhibition” value is reported as 3% and the Z score is reported as -0.37.
Turning to `CC(C)Oc1cc(-c2ccc(C(=O)N[C@@H](C)Cn3cccn3)cc2)nc(N)n1`, the “% Inhibition” value is -16% and the Z score amounted to 3.03.
The corresponding values for `Cc1cc(-c2ccc(S(=O)(=O)NC3CCN(Cc4ccccc4)CC3)c(C)c2)on1` are -9% and 1.45.
Consider `COCCCN(C[C@@H]1CCCN2CCCC[C@H]12)C(=O)COc1cn(C)c(C)cc1=O`, for which the “% Inhibition” value is given as -1% and the Z score is 0.17.
Turning to `CC(C)[C@H](NCc1cc(C(N)=O)cs1)C(C)(C)O`, the “% Inhibition” value is reported as 1% and the Z score is on record as -0.15.
`Cc1nccn1C[C@H](O)COc1ccccc1Cl`: the “% Inhibition” value is reported as 2% and the Z score was -0.27.
For the molecule `CCC(CC)[C@@H](O)CNC(=O)NCc1nc(C(F)F)no1`, the “% Inhibition” value is reported as -11% and the Z score came to 1.67.
As for `Cc1nc(NCc2c(F)cccc2F)sc1-c1ccn(Cc2ccsc2)n1`, the “% Inhibition” value is recorded as -3% and the Z score was found to be 0.45.
The corresponding values for `CCOCCC1(CNC(=O)[C@H]2CC(=O)N(C)C2)CCCC1` are -4% and 0.34.
On to `CCc1cc(N2CCC(NCc3n[nH]c4c3CCC4)CC2)nc(N(C)C)n1`, for which the “% Inhibition” value is given as 9% and the Z score was -1.62.
For `O=C(OC[C@H]1CCCCN1C(=O)c1cc2cccc(F)c2o1)N1CCOCC1` the same measures were 3% and -0.42.
For `Cc1cccc(NC(=O)N2C[C@@H]3CC[C@H]2CN(Cc2ccccn2)C3)c1C` the same measures were -2% and 0.27.
For `CCCc1nc2cc(CCC(=O)Nc3cc(Cl)c(OC)cc3OC)ccc2[nH]1`, the “% Inhibition” value is -3% and the Z score came out at 0.41.
The corresponding values for `c1cnc(N2CCC3(CCCC3)CC2)cn1` are 5% and -0.45.
The corresponding values for `CCC(CC)n1ccc(C(=O)O[C@@H](C)c2ccccn2)n1` are -1% and 0.12.
For `CCOC(=O)C1(CC2CC2)CCN(Cc2cnc(-c3ccc(Cl)cc3)nc2)CC1` the same measures were 1% and -0.26.
Consider `C[C@H](N[C@H]1CC[C@@H](CO)CC1)c1cc(Cl)cc(Cl)c1`, for which the “% Inhibition” value was -8% and the Z score is reported as 0.73.
For `CN(CCC[C@H]1CCCO1)C(=O)Nc1cccnc1Oc1ccc(F)cc1` the same measures were -7% and 0.95.
For `COC(=O)c1cnc(CO)c(Cl)c1` the same measures were 3% and -0.31.
For the molecule `COC[C@@H]1[C@H](NC(=O)c2c(F)cccc2OC)[C@H]2CCO[C@H]21`, the “% Inhibition” value is on record as 4% and the Z score was -0.5.
For `CCN=C(NCc1nnc2n1CCC2)N1CCC2(CCC(C)CC2)C1` (stereo not given) the same measures were 9% and -1.43.
The corresponding values for `CN(CCCN1C(=O)NC(C)(C)C1=O)Cc1cccc(C#N)c1` are -2% and 0.31.
For `CC(C)N(CC(N)=O)C(=O)[C@H]1CC12CCCC2` the same measures were -2% and 0.41.
As to `Cc1nc(C)c(C(=O)N2Cc3cnc(CC(C)C)nc3C2)s1`, the “% Inhibition” value was -16% and the Z score came out at 2.07.
The corresponding values for `C[C@H](O)CN1CCN(C(=O)c2ccc(-c3ccc(F)cc3)n2C)CC1` are -5% and 0.97.
For `CCCC(=O)N1CCC(NCc2nc(C3CCCCC3)no2)CC1` the same measures were -1% and 0.18.
The corresponding values for `COCCN1C(=O)N[C@@](Cc2ccc(F)cc2)(C2CCN(C(=O)c3sccc3C)CC2)C1=O` are -3% and 0.43.
In the case of `CC(C)CNC(=O)C1(NCc2nnsc2Cl)CCCC1`, the “% Inhibition” value is recorded as -13% and the Z score was 1.54.
In the case of `Cc1nc(CNCc2ccc3c(c2)OCCO3)c2ccccn12`, the “% Inhibition” value came to 5% and the Z score is -0.48.
For `CCOc1ccc(-c2c(-c3ccccc3)ncn2Cc2nnn[nH]2)cc1CO` the same measures were -2% and 0.43.
For `Cc1cc(C)c(C(=O)Nc2nc(C)ns2)c(C)n1` the same measures were -1% and 0.15.
The corresponding values for `CC(C)(C)C[C@H]1CCCN1C(=O)c1nccnc1N` are 1% and -0.24.
With `COc1ccc([C@H]2OCC[C@@H]2NC(=O)Nc2ccccc2-n2nccc2C)cn1`, the “% Inhibition” value was -11% and the Z score was 1.88.
The corresponding values for `CCC(C(=O)Nc1nc[nH]n1)(C(F)(F)F)C(F)(F)F` are -10% and 0.92.
Turning to `O=C(NC1CCCC1)[C@H](Cc1ccccc1)NC(=O)N1CC(O)=Nc2ccccc21`, the “% Inhibition” value is -9% and the Z score was determined as 0.92.
The corresponding values for `CCc1ccc([C@H](CO)NC(=O)c2cccc3c2CCOC3)cc1` are -3% and 0.32.
For `O=c1ccc(C2CC2)nn1CC1CCN(CC2CCCC2)CC1` the same measures were 0% and -0.04.
For `Cc1nn(C)c2nc(NCCCc3csc(N)n3)sc12`, the “% Inhibition” value is given as -6% and the Z score is on record as 0.92.
Consider `Cc1ccccc1CN1CCCN(Cc2nc(N)nc(N)n2)CC1`, for which the “% Inhibition” value stood at 4% and the Z score is given as -0.71.
The corresponding values for `CCNC(=O)c1ccc(N2CCC[C@H](c3nncn3C3CC3)C2)nn1` are -18% and 2.08.
For `CC(NC(=O)C1CCN(C)C(=O)C1)c1cccnc1` (stereo not given) the same measures were -2% and 0.32.
The corresponding values for `Cn1ncc(CNC(=O)c2cccc(C(F)F)c2F)n1` are -7% and 1.29.
With `CC(C)Oc1cccc(C(=O)[C@H]2CCCN(c3ncnc4[nH]ccc34)C2)c1`, the “% Inhibition” value came to 2% and the Z score was -0.38.
For `COc1ccc(NC(=O)N2CCN(C(=O)c3ccc(F)cc3)CC2)c(C)n1` the same measures were -13% and 1.92.
The corresponding values for `COCCN1C[C@@H]2CC[C@H]1CN(C(=O)c1cc3ccc(OC)cc3n1C)C2` are -8% and 1.33.
The corresponding values for `N#Cc1cccc(OCC2CC(F)(F)C2)n1` are -8% and 0.97.
For `CCCc1noc(CCC(=O)NCC(C)(C)c2ccccc2C)n1`, the “% Inhibition” value turned out to be 2% and the Z score is given as -0.21.
The corresponding values for `CN(C(=O)C(=O)Nc1ccc2nccnc2c1)C1CCC(C)(C)CC1` are -8% and 0.92.
The corresponding values for `Cn1c(C(F)(F)F)nn(CC(=O)Nc2ccc(F)c(Cl)c2)c1=O` are 13% and -1.53.
The corresponding values for `CN1CCN([C@H]2CN(c3ccc(Cl)cn3)C[C@@H]2O)CC1` are -11% and 1.06.
Consider `CC1CCN(CCC[C@H](NCCn2ccnn2)c2ccc(F)cc2)CC1`, for which the “% Inhibition” value is reported as 1% and the Z score is on record as -0.13.
The corresponding values for `Cn1nc(C(=O)N(CCO)CC2CCCCC2)c2c1CCCC2` are 6% and -0.71.
On to `COCCN(CC(=O)N1N=C(c2ccc(OC)cc2)C[C@H]1c1ccccc1)C(=O)C1CCCC1`, for which the “% Inhibition” value is on record as -15% and the Z score is on record as 1.79.
On to `CC(C)c1ncc(C(=O)Nc2ccccc2-c2ncc[nH]2)s1`, for which the “% Inhibition” value amounted to 12% and the Z score is reported as -1.2.
For `Cc1noc(C)c1CS(=O)(=O)c1ccccc1Br` the same measures were 2% and -0.42.
The corresponding values for `O=C(COc1ccccc1)N1CCCN(S(=O)(=O)N2CCCC2)CC1` are 1% and -0.08.
The corresponding values for `COCc1nc(-c2ccoc2)n(CC(F)(F)F)n1` are -4% and 0.73.
For the molecule `O=C(N1CCc2c(nc[nH]c2=O)C1)C1(c2ccccc2)CCCC1`, the “% Inhibition” value is given as -1% and the Z score turned out to be 0.18.
For `Nc1c2c(-c3ccccc3Cl)nc(NC[C@H]3CCCO3)nc2nn1-c1ccccc1` the same measures were -14% and 1.36.
The corresponding values for `O=C(c1cc2cc(F)ccc2nc1O)N1C[C@H]2CCC[C@H]2C1` are -5% and 1.02.
Consider `O=C(NCc1ccncc1)c1ccc(S(=O)(=O)N2CCCCCC2)cc1`, for which the “% Inhibition” value is listed as -13% and the Z score is 2.32.
For `O=C(c1ccccc1)N1C[C@H]2CC[C@@H](C1)N(C(=O)c1cccc3ccccc13)C2` the same measures were -7% and 1.34.
For `CC1CCCC(C)N(C(=O)CCOc2ccc(C(N)=O)cc2)C1` (stereo not given) the same measures were -2% and 0.26.
The corresponding values for `Cc1cnc(CN(CCO)Cc2nccs2)cn1` are -10% and 1.51.
For `Cc1oncc1C(=O)N1CC[C@H](n2ccnn2)C1`, the “% Inhibition” value is 1% and the Z score is -0.2.
Turning to `CN1CCOC(CNC(=O)NC2CC2c2cccc(F)c2)C1` (stereo not given), the “% Inhibition” value amounted to 2% and the Z score is -0.38.
For the molecule `CCN(CC)CCCN(C)c1ncnc(N)c1Cl`, the “% Inhibition” value was -19% and the Z score came out at 2.08.
For `CC(C)(C(=O)NCc1ncccc1S(C)(=O)=O)C1CCC1` the same measures were -9% and 1.02.
For `COc1cc2nc(CN3CCOCC3)n(CC(=O)Nc3ccc(C(C)C)cc3)c(=O)c2cc1OC` the same measures were -7% and 1.33.
The corresponding values for `c1nc(NCCC2CCCCC2)c2cnoc2n1` are 7% and -0.88.
For the molecule `Cn1c(=O)[nH]c(=O)c2nc(C=Cc3cccc(Cl)c3)c(O)nc21`, the “% Inhibition” value was 8% and the Z score is -1.05.
For the molecule `CCc1ccc(NC(=O)[C@@H]2COCC(=O)N2Cc2ccc(OC)c(OC)c2)cc1`, the “% Inhibition” value is -14% and the Z score stood at 1.59.
Turning to `O=C(COc1ccc2ccccc2c1)Nc1cnn(CC2CC2)c1`, the “% Inhibition” value is reported as -13% and the Z score is 2.01.
With `Cc1nc(C)c(Cc2cccc(F)c2)c(N2CCCN(C(=O)c3ccc(C(F)(F)F)cc3)CC2)n1`, the “% Inhibition” value came to 8% and the Z score is listed as -1.04.
